Results published in PubChem BioAssay AID588855 (National Center for Advancing Translational Sciences (NCATS), 2011).
In all, about 410,000 compounds went through this assay and about 5,000 (1.2%) were called active. The shares of active, inactive and inconclusive entries below differ from those in the screen. The call rests on the fitted dose curve; in most records, active means well fitted inhibition curve with a large enough effect; inconclusive means small, poorly fitted or top-dose-only effect; inactive means no such curve, though single readings can be large or run the other way. Potencies of inconclusive entries are doubtful fits and often do not repeat.

test: qHTS for Inhibitors of TGF-b; details: HepG2 CAGA-GFP TGF-b/SMAD3 reporter, GFP fluorescence, 18 h, TGF-beta stimulated, 500 pg/mL final; series mostly up to 46.1 µM; activity, negative = inhibition: at the top concentration; further: nearly all actives have a fitted effect of over 65% in size
Summary of the method: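 Inhibition was scored as loss of TGF-beta-induced (500 pg/mL final, 18 hours, 37 degrees C) GFP in HEPG2 cells carrying a CAGA-GFP reporter, in DMEM with 1% FBS. Well GFP was summed per cell; Activity was normalised to unstimulated and stimulated DMSO wells, then concentration-response fitting.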
On the % scale 0 is the no-effect control and ±100 the full control effect; potency means the concentration at half of the fitted maximal effect; tags describe the fitted curve by direction and shape.

| SMILES | Potency | activity, negative = inhibition |
| --- | --- | --- |
| Nc1cc2c(cc1Cl)-c1ccccc1C2=NO | inconclusive: 35.5 µM [inhibitor, single point] |  |
| CN1C(=O)C2(C(C#N)=C(N)N(c3cc(Cl)cc(Cl)c3)C3=C2C(=O)CCC3)c2ccccc21 (stereo unspecified) | inconclusive: 10 µM [inhibitor, partial curve] |  |
| Cc1c(C(C)C)c(=O)n(-c2ccc(S(=O)(=O)N3CCOCC3)cc2)n1C |  | inactive: 3.6% |
| O=C(CCN1C(=O)/C(=C/c2ccc(F)cc2)SC1=S)NCCc1ccc(O)cc1 |  | inactive: 3.68% |
| Nc1cc([N+](=O)[O-])ccc1N1C(=O)CCCC1=O |  | inactive: -7.66% |
| CCOC(=O)COc1ccccc1C1C(C(=O)OC)=C(C)NC2=C1C(=O)c1ccccc12 (stereo unspecified) | active: 15.8 µM |  |
| O=C(NCCn1ccc2ccccc21)c1ccc2c(c1)OCO2 | inconclusive: 12.6 µM [inhibitor, single point] |  |
| CS(=O)(=O)c1ccc(C(=O)OCc2nnc(-c3ccc(Cl)cc3)o2)cc1[N+](=O)[O-] | inconclusive: 31.6 µM [inhibitor, single point] |  |
| O=C(Nc1ccccc1)Nc1ccc(F)c([N+](=O)[O-])c1 | inconclusive: 20 µM [inhibitor, single point] |  |
| CCN1C(=O)Cc2cc(S(=O)(=O)NCCc3ccccc3)ccc21 |  | inactive: -2.34% |
| Cc1nn2c(=O)cc(COc3ccc(/C=C(\C#N)C(=O)Nc4ccc(F)cc4)cc3)nc2s1 |  | inactive: -15.5% |
| Cc1c(C)n(Cc2ccccc2)c2ccc(C(=O)OCCCN(C)C)cc12 | inconclusive: 35.5 µM [inhibitor, partial curve, poor fit] |  |
| CN(C(=O)COc1nnc(-c2cccs2)c(-c2cccs2)n1)c1ccccc1 | inconclusive: 35.5 µM [inhibitor, single point] |  |
| Cc1ccc(S(=O)(=O)c2nc(S(C)(=O)=O)sc2N(C)Cc2ccccc2)cc1 | inconclusive: 22.4 µM [inhibitor, single point] |  |
| Cc1cccc(NC(=O)C2CCC(CNS(=O)(=O)c3csc(C(N)=O)c3)CC2)c1C (stereo unspecified) |  | inactive: -15.3% |
| CC(C)C(=O)NC(c1ccc(Cl)cc1Cl)c1ccc2cccnc2c1O (stereo unspecified) | inconclusive: 1.78 µM [inhibitor, full curve, poor fit] |  |
| COc1ccc(CCNC(=O)CCCCCNc2nc(=S)[nH]c3ccccc23)cc1OC |  | inactive: 7.9% |
| Cc1nc2c(c(C)c1CCC(=O)NCc1ccccc1)c(=O)n(C)c(=O)n2C | inconclusive: 35.5 µM [inhibitor, single point] |  |
| CC1CCCC(NC(=O)c2cccc(S(=O)(=O)NCc3ccccc3)c2)C1C (stereo unspecified) | inconclusive: 25.1 µM [inhibitor, single point] |  |
| Cc1cc(/C=C2/SC(=S)N(c3cccc(Cl)c3)C2=O)c(C)n1-c1cccnc1 | inconclusive: 20 µM [inhibitor, partial curve, poor fit] |  |
| O=C(NCc1nc2ccccc2[nH]1)C1=C[C@H](C2CCCCC2)C[C@H](OCc2ccc(CO)cc2)O1 | inconclusive: 35.5 µM [inhibitor, single point] |  |
| CCCNC(=S)N1CC2(C)CN(C(=O)C(=O)OCC)CC(C)(C1)C2=O |  | inactive: 1.13% |

| SMILES | Potency | activity, negative = inhibition |
| --- | --- | --- |
| COc1cc(CNC(=O)c2cc(-c3cc(Cl)ccc3C)n[nH]2)cc(OC)c1 | inconclusive: 35.5 µM [inhibitor, single point] |  |
| O=C1Nc2ccc(Cl)cc2C(C#CC2CC2)(C(F)(F)F)O1 (stereo unspecified) | inconclusive: 15.8 µM [inhibitor, single point] |  |
| CC(C)(C)n1nnnc1C(c1cccs1)N1CCCc2ccccc21 (stereo unspecified) | inconclusive: 3.55 µM [inhibitor, partial curve, poor fit] |  |
| O=C(NCC1CCCCC1)c1cccc(S(=O)(=O)NCc2cccnc2)c1 | inconclusive: 0.112 µM [inhibitor, full curve, poor fit] |  |
| Cc1c(Cl)cccc1NC(=S)NCCC(c1ccccc1)c1ccccc1 | inconclusive: 35.5 µM [inhibitor, single point] |  |
| COc1ccc(C(=O)Nc2ccc3oc(-c4cccc(F)c4)nc3c2)cc1OC |  | inactive: 1.05% |
| Cc1nnc(N/N=C/c2ccc(-c3ccc(Br)cc3)o2)n1N | inconclusive: 35.5 µM [inhibitor, single point] |  |
| Cc1oc2ncnc(N3CCCCC3)c2c1C(=O)N1CCN(c2cccc(Cl)c2)CC1 | inconclusive: 35.5 µM [inhibitor, single point] |  |
| CC(C)C(=O)N1CCN(c2nc(-c3ccc(Cl)cc3)cs2)CC1 | inconclusive: 7.08 µM [inhibitor, partial curve] |  |
| CCOc1ccc(Br)cc1S(=O)(=O)Nc1ccc(Cl)c(S(=O)(=O)N(CC)c2ccccc2)c1 | inconclusive: 25.1 µM [inhibitor, single point] |  |
| CC(C)(C)c1ccc(C(=S)N2CCN(c3ccccc3)CC2)cc1 | inconclusive: 17.8 µM [inhibitor, single point] |  |
| COc1cc(CN2CCCC(C(=O)c3ccc4c5c(cccc35)CC4)C2)cc(OC)c1O (stereo unspecified) | inconclusive: 35.5 µM [inhibitor, single point] |  |
| CNC(=O)C1(C(F)(F)F)C/C(=C\CCO)CCCO1 (stereo unspecified) | inconclusive: 5.62 µM [inhibitor, single point] |  |
| CCCCn1c(N)c(S(=O)(=O)c2ccc(C)cc2)c2nc3ccccc3nc21 | inconclusive: 35.5 µM [inhibitor, single point] |  |
| O=C1CSC(=S)N1Nc1ccccc1 |  | inactive: 13.5% |
| COc1ccc(S(=O)(=O)N2CCOCC2)cc1NC(=O)c1ccc(S(=O)(=O)N(C)c2ccccc2OC)cc1 |  | inactive: 7.97% |
| CCC(CC)C(=O)Nc1nnc(SCc2cc(=O)n3cccc(C)c3n2)s1 | inconclusive: 8.91 µM [inhibitor, partial curve, poor fit] |  |
| Cn1cnnc1SCC(=O)c1ccc(O)c(O)c1 |  | inactive: 26.9% |
| Cc1nn(C(C)C(=O)N2CCN(c3ccc(Cl)cc3)CC2)c(=O)c2cc3occc3n12 (stereo unspecified) | inconclusive: 11.2 µM [inhibitor, partial curve, poor fit] |  |
| Cc1ccc(-c2nc3cnccn3c2Nc2ccc3c(c2)OCO3)cc1 | inconclusive: 5.01 µM [inhibitor, partial curve, poor fit] |  |
| COc1ccc(/C=C/C(=O)NCCCN2CCCCCC2)cc1 |  | inactive: 8.11% |
| O=[N+]([O-])c1cc(Cl)ccc1Oc1ccc(-c2nnco2)cc1 | inconclusive: 6.31 µM [inhibitor, full curve, poor fit] |  |

| SMILES | Potency | activity, negative = inhibition |
| --- | --- | --- |
| O=C(NC(Cc1c[nH]c2ccccc12)C(=O)Nc1ccc(OC(F)(F)F)cc1)c1cccs1 (stereo unspecified) | inconclusive: 35.5 µM [inhibitor, single point] |  |
| CCOC(=O)N1CCC(Nc2c(N3CCN(c4cc(Cl)ccc4C)CC3)c(=O)c2=O)CC1 | inconclusive: 7.08 µM [inhibitor, full curve, poor fit] |  |
| Cc1cccc(CS(=O)(=O)c2ncc(Cl)c(C(=O)Nc3c(C)cccc3C)n2)c1 | active: 6.31 µM |  |
| CC(C)NC(=O)Nc1cccc2c1O[C@H](CN(C)S(=O)(=O)c1ccc(F)cc1)[C@@H](C)CN([C@H](C)CO)C2=O |  | inactive: 6.29% |
| COc1ccc(-n2c(N)cc(=O)nc2SCC(=O)NC2CCCCC2)cc1 |  | inactive: 16.9% |
| Cc1ccc(S(=O)(=O)c2cn(Cc3cccc(C)c3)c3cc4c(cc3c2=O)OCO4)cc1 | inconclusive: 35.5 µM [inhibitor, single point] |  |
| CC(=O)Nc1ccc(NC(=O)CSc2nnc(NC(=O)C3CC(=O)N(c4ccc(F)cc4)C3)s2)cc1 (stereo unspecified) |  | inactive: -2.61% |
| CCOC(=O)Cc1csc(NC(=O)CSc2nnc(C3CC3)n2C)n1 |  | inactive: -14.2% |
| O=C(/C=C/Nc1ccccc1Br)c1ccccn1 |  | inactive: 0.719% |
| Cc1ccc(NC(=O)C2CCCN(S(=O)(=O)c3cccc4cccnc34)C2)cc1 (stereo unspecified) | inconclusive: 35.5 µM [inhibitor, single point] |  |
| O=C(NCCN1CCCCC1)c1ccc(Oc2cc(Cl)cc(Cl)c2)o1 | inconclusive: 28.2 µM [inhibitor, single point] |  |
| O=C(CSc1nc2[nH]ncc2c(=O)[nH]1)Nc1cc(C(F)(F)F)ccc1Cl | inconclusive: 6.31 µM [inhibitor, single point] |  |
| O=C(N/N=C/c1ccc(O)cc1O)C1CC1 |  | inactive: -2.45% |
| CN(C(=O)c1cccc(NC(=O)Cc2cccc(NC(=O)C3CCCN(C(=O)C4CCCC4)C3)c2)c1)C1CCC1 (stereo unspecified) | inconclusive: 25.1 µM [inhibitor, single point] |  |
| Cc1ccc2c(c1)c1c(n2CC(O)CNC(C)(C)C)CCCC1 (stereo unspecified) | inconclusive: 35.5 µM [inhibitor, single point] |  |
| C=CCC(=O)N1CCCC(CCC(=O)NCc2ccccc2F)C1 (stereo unspecified) | inconclusive: 35.5 µM [inhibitor, partial curve, poor fit] |  |
| CC(=O)Nc1ccc(S(=O)(=O)NCCc2ccc(F)cc2)cc1 | inconclusive: 2.51 µM [inhibitor, partial curve, poor fit] |  |
| O=C(Nc1ccc(N2CCOCC2)cc1)C1(c2ccc(Cl)cc2)CCC1 |  | inactive: -5.98% |
| CCN1CCN(CCNC(=O)c2ccc3c(c2)N(Cc2ccc(F)cc2)C(=O)/C(=C/c2ccccc2)S3)CC1 | inconclusive: 35.5 µM [inhibitor, single point] |  |
| Cc1ccc(N(C(=O)CS(=O)CC(=O)Nc2ccc(F)cc2)C(C(=O)NC2CCCCC2)c2ccco2)cc1 (stereo unspecified) | inconclusive: 2 µM [inhibitor, partial curve] |  |
| Cc1cc[n+](CC[n+]2ccc(C)cc2)cc1 |  | inactive: 1.99% |
| O=C([C@H](Cc1ccccc1)NS(=O)(=O)c1ccc(Cl)cc1)N1CC[C@@]2(O)CCCC[C@H]2C1 | inconclusive: 2.51 µM [inhibitor, single point] |  |
